This note sets out measurements from the supplement of paper PMC8948288.

One data set relates to H4. Description: cell viability relative to siNT1 (ATP content); H4 human neuroglioma and GL261 mouse glioma; higher = less toxic. The following applies: siRNA concentration 10 nM; 96 h; human.
Another data set has as its system GL261. The data set is described as above. As to conditions: siRNA concentration 25 nM; 96 h; mouse.

The sequences are guide strands of siRNAs; only the seed at positions 2 to 7 varies.
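Further: cells reverse transfected with siRNA duplexes via lipid reagent, ATP read by luminescence, triplicate wells, values scaled to mean viability with non-targeting control siNT1.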

On to UCCACGCACAUGUAAACCA, for which the cell viability was 40.8% with H4 and 21.3% in the data set with GL261.

For UCCACGGACAUGUAAACCA, the figures for the cell viability in the data set with H4 and in the data set on GL261 were 50.9% and 38.5%, respectively.

For the sequence UCCACGUACAUGUAAACCA, the cell viability in the data set on H4 came to 75.9%; in the data set with GL261, 43.7%.

With UCCACUAACAUGUAAACCA, the cell viability was 98.1% with H4 and 48.7% with GL261.

Take UCCACUCACAUGUAAACCA: the values for the cell viability with H4 and in the data set on GL261 were 62.1% and 32.5%, respectively.

Take UCCACUGACAUGUAAACCA: the cell viability with H4 came to 82.8%; in the data set with GL261 it was 44.9%.

In the case of UCCACUUACAUGUAAACCA, the cell viability is 71.1% with H4 and 50.2% in the data set with GL261.

As for UCCAGAAACAUGUAAACCA, the cell viability was 86.4% with H4 and 69.9% with GL261.

With UCCAGACACAUGUAAACCA, the cell viability worked out at 32.3% with H4 and 10.6% with GL261.

Take UCCAGAGACAUGUAAACCA: the cell viability in the data set with H4 amounted to 72.5%; with GL261, 46.1%.

Turning to UCCAGAUACAUGUAAACCA, the cell viability in the data set with H4 is 59.6%; in the data set on GL261 it was 42.1%.

In the case of UCCAGCAACAUGUAAACCA, the results for the cell viability with H4 and in the data set with GL261 were 66% and 20.7%, respectively.

UCCAGCCACAUGUAAACCA: the cell viability was 16.5% with H4 and 6.26% in the data set on GL261.

With UCCAGCGACAUGUAAACCA, the values for the cell viability in the data set on H4 and in the data set with GL261 were 57% and 28.6%, respectively.

With UCCAGCUACAUGUAAACCA, the cell viability with H4 worked out at 33.2%; in the data set on GL261 it was 13.9%.

For UCCAGGAACAUGUAAACCA, the cell viability came to 71.2% in the data set with H4 and 36.7% in the data set with GL261.

For UCCAGGCACAUGUAAACCA, the figures for the cell viability in the data set on H4 and in the data set on GL261 were 13.1% and 25.2%, respectively.

On to UCCAGGGACAUGUAAACCA, for which the results for the cell viability in the data set with H4 and in the data set with GL261 were 39.8% and 15.8%, respectively.

As for UCCAGGUACAUGUAAACCA, the cell viability with H4 was found to be 32.2%; in the data set with GL261 it was 28.9%.

Turning to UCCAGUAACAUGUAAACCA, the cell viability in the data set on H4 was 106%; in the data set with GL261, 36.3%.

UCCAGUCACAUGUAAACCA: the figures for the cell viability in the data set on H4 and in the data set on GL261 were 40.4% and 28.6%, respectively.

On to UCCAGUGACAUGUAAACCA, for which the cell viability with H4 is 81.9%; with GL261, 34.6%.

For UCCAGUUACAUGUAAACCA, the cell viability came out at 71% in the data set on H4 and 26.4% in the data set on GL261.

As for UCCAUAAACAUGUAAACCA, the cell viability in the data set with H4 was found to be 78.8%; in the data set on GL261, 34.4%.

As to UCCAUACACAUGUAAACCA, the cell viability was found to be 72.3% with H4 and 23.5% with GL261.

With UCCAUAGACAUGUAAACCA, the figures for the cell viability with H4 and with GL261 were 108% and 22%, respectively.

UCCAUAUACAUGUAAACCA: the results for the cell viability in the data set with H4 and in the data set on GL261 were 75.6% and 34.6%, respectively.

With UCCAUCAACAUGUAAACCA, the cell viability with H4 was found to be 110%; with GL261, 23.2%.

Consider UCCAUCCACAUGUAAACCA, for which the cell viability in the data set on H4 was determined as 3.36%; in the data set with GL261 it was 9.21%.

Consider UCCAUCGACAUGUAAACCA, for which the cell viability with H4 stood at 83.9%; in the data set with GL261 it was 34.3%.

As for UCCAUCUACAUGUAAACCA, the cell viability with H4 was 45.9%; in the data set on GL261 it was 19.4%.

For UCCAUGAACAUGUAAACCA, the cell viability in the data set on H4 turned out to be 109%; in the data set on GL261, 36.8%.

In the case of UCCAUGCACAUGUAAACCA, the cell viability in the data set on H4 came out at 18.8%; in the data set with GL261, 10.1%.

On to UCCAUGGACAUGUAAACCA, for which the cell viability was determined as 15.4% in the data set with H4 and 12.1% in the data set on GL261.

On to UCCAUGUACAUGUAAACCA, for which the results for the cell viability with H4 and in the data set with GL261 were 34.9% and 20.3%, respectively.

Regarding UCCAUUAACAUGUAAACCA, the figures for the cell viability in the data set on H4 and in the data set on GL261 were 94.1% and 41.2%, respectively.

On to UCCAUUCACAUGUAAACCA, for which the results for the cell viability with H4 and in the data set on GL261 were 61.1% and 21.4%, respectively.

As for UCCAUUGACAUGUAAACCA, the cell viability came out at 108% in the data set on H4 and 62.6% in the data set with GL261.

Turning to UCCAUUUACAUGUAAACCA, the values for the cell viability in the data set with H4 and in the data set with GL261 were 73.8% and 39.3%, respectively.

On to UCCCAAAACAUGUAAACCA, for which the cell viability in the data set with H4 amounted to 79.1%; in the data set on GL261 it was 70%.

For the sequence UCCCAACACAUGUAAACCA, the cell viability in the data set with H4 was determined as 77.4%; with GL261 it was 43.5%.

UCCCAAGACAUGUAAACCA: the results for the cell viability in the data set on H4 and in the data set with GL261 were 88% and 56.7%, respectively.

Take UCCCAAUACAUGUAAACCA: the cell viability was determined as 109% in the data set with H4 and 62.9% in the data set on GL261.

As to UCCCACAACAUGUAAACCA, the results for the cell viability with H4 and with GL261 were 80.9% and 37.9%, respectively.

In the case of UCCCACCACAUGUAAACCA, the figures for the cell viability with H4 and in the data set with GL261 were 34.2% and 17.2%, respectively.

In the case of UCCCACGACAUGUAAACCA, the cell viability in the data set on H4 worked out at 70%; with GL261, 27.7%.

On to UCCCACUACAUGUAAACCA, for which the cell viability stood at 96.9% in the data set with H4 and 77.6% in the data set with GL261.

On to UCCCAGAACAUGUAAACCA, for which the cell viability with H4 came to 67.8%; in the data set with GL261, 40.5%.

Consider UCCCAGCACAUGUAAACCA, for which the cell viability is 5.22% in the data set on H4 and 12.1% in the data set with GL261.

For UCCCAGGACAUGUAAACCA, the cell viability in the data set with H4 came out at 80.2%; in the data set on GL261, 45.9%.

UCCCAGUACAUGUAAACCA: the results for the cell viability in the data set with H4 and in the data set with GL261 were 82.9% and 16.3%, respectively.

As to UCCCAUAACAUGUAAACCA, the cell viability with H4 was determined as 112%; in the data set on GL261 it was 40.4%.

For the sequence UCCCAUCACAUGUAAACCA, the results for the cell viability with H4 and in the data set with GL261 were 86.1% and 28.1%, respectively.

For the sequence UCCCAUGACAUGUAAACCA, the cell viability with H4 was determined as 77.2%; in the data set on GL261, 33.3%.

For UCCCAUUACAUGUAAACCA, the figures for the cell viability with H4 and with GL261 were 89.7% and 34.8%, respectively.

Take UCCCCAAACAUGUAAACCA: the cell viability with H4 came out at 112%; in the data set with GL261 it was 65.3%.

Regarding UCCCCACACAUGUAAACCA, the cell viability with H4 was 55.7%; with GL261, 46.1%.

As for UCCCCAGACAUGUAAACCA, the cell viability in the data set on H4 is 69.6%; in the data set with GL261, 42.3%.

As for UCCCCAUACAUGUAAACCA, the cell viability in the data set with H4 came to 70.5%; in the data set on GL261 it was 55.6%.

For UCCCCCAACAUGUAAACCA, the cell viability was determined as 48.1% in the data set on H4 and 49.3% in the data set on GL261.

Consider UCCCCCCACAUGUAAACCA, for which the cell viability was determined as 12.7% in the data set on H4 and 34.2% in the data set on GL261.

UCCCCCGACAUGUAAACCA: the cell viability with H4 stood at 73.8%; in the data set on GL261, 53.4%.

Regarding UCCCCCUACAUGUAAACCA, the figures for the cell viability in the data set on H4 and in the data set on GL261 were 65.5% and 40.2%, respectively.

UCCCCGAACAUGUAAACCA: the values for the cell viability in the data set on H4 and with GL261 were 103% and 90.2%, respectively.

As to UCCCCGCACAUGUAAACCA, the cell viability in the data set with H4 was determined as 40.6%; in the data set on GL261 it was 24.1%.

By cell viability is commonly meant a read-out of living cells in per cent, often relative to untreated cells.
